Data as given in article PMC9312982.
These are yes or no findings as the source states them, for the method shown. In cells and extracts the contact can be indirect. Some results given as binding are weak or reduced against the parent protein; the word gives no strength.

Amino acid sequences for entries named in this document (tags omitted).
UniProt P58753: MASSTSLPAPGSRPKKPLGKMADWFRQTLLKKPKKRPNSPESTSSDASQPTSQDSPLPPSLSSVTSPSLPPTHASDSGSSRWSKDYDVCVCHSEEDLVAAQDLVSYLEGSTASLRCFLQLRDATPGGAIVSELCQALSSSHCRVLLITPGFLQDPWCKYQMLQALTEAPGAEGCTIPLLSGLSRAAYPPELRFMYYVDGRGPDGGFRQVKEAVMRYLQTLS
UniProt P51617: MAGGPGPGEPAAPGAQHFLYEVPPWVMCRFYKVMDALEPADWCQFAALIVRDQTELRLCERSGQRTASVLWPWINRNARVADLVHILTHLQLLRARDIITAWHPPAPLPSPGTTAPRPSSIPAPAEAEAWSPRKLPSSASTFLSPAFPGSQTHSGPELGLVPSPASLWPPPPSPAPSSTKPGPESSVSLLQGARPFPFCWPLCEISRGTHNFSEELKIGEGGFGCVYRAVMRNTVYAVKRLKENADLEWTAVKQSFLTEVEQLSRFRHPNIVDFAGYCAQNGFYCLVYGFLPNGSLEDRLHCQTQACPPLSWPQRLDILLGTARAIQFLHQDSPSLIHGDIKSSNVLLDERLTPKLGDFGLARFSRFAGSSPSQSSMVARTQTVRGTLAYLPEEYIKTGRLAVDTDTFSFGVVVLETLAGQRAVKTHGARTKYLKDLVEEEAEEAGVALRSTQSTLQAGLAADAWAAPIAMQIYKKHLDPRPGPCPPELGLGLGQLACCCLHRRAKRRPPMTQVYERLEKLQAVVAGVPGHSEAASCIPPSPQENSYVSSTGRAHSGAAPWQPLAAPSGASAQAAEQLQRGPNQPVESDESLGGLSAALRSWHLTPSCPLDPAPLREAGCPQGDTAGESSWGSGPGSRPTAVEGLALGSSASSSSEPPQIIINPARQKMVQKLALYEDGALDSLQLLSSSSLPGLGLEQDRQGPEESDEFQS
UniProt Q99836: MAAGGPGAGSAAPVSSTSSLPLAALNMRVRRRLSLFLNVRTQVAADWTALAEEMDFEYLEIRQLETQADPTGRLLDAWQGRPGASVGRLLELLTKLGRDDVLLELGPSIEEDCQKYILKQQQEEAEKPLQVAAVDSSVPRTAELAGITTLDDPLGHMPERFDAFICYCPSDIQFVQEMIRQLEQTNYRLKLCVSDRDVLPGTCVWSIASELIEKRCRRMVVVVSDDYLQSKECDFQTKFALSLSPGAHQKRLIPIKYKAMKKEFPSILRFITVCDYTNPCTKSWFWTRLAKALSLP

Legend:
[1] = molecular target: Toll-interleukin 1 receptor domain-containing adaptor protein (TIRAP) (human (endogenous in primary MDMs and THP-1)) (UniProt P58753); test: co-IP; as a1, human primary MDMs stimulated with CL075 (2 µg/mL) for 15 min only
[2] = molecular target: Toll-interleukin 1 receptor domain-containing adaptor protein (TIRAP) (human (endogenous in primary MDMs and THP-1)) (UniProt P58753); test: co-IP; endogenous TIRAP precipitated for 4 h at +4 °C with anti-TIRAP antibodies covalently coupled to Dynabeads from lysates of human primary MDMs (150 mM NaCl, 50 mM TrisHCl pH 8.0, 1 mM EDTA, 1% NP40); cells untreated or stimulated by LPS (100 ng/mL) or CL075 (2 µg/mL) for the indicated times; Western blot for MyD88, IRAK1, IRAK4, TIRAP
[3] = molecular target: Toll-interleukin 1 receptor domain-containing adaptor protein (TIRAP) (human (endogenous in primary MDMs and THP-1)) (UniProt P58753); test: co-IP; TIRAP precipitated from lysates of LPS-stimulated THP-1 cells, with or without pre-treatment with the IRAK4 inhibitor PF-06426779; Western blot

Row | Molecule | binding [1] | binding [2] | binding [3]
1 | interleukin-1 receptor-associated kinase 1 (IRAK1) (from UniProt P51617 1-712) | no binding (condition: 15 min of CL075 stimulation) | binds | 
2 | myeloid differentiation primary response gene 88 (MyD88) (from UniProt Q99836 1-296) | no binding (condition: 15 min of CL075 stimulation) |  | 
3 | interleukin-1 receptor-associated kinase 4 (IRAK4) (protein, UniProt Q9NWZ3 1-460) MNKPITPSTYVRCLNVGLIRKLSDFIDPQEGWKKLAVAIKKPSGDDRYNQFHIRRFEALLQTGKSPTSELLFDWGTTNCTVGDLVDLLIQNEFFAPASLLLPDAVPKTANTLPSKEAITVQQKQMPFCDKDRTLMTPVQNLEQSYMPPDSSSPENKSLEVSDTRFHSFSFYELKNVTNNFDERPISVGGNKMGEGGFGVVYKGYVNNTTVAVKKLAAMVDITTEELKQQFDQEIKVMAKCQHENLVELLGFSSDGDDLCLVYVYMPNGSLLDRLSCLDGTPPLSWHMRCKIAQGAANGINFLHENHHIHRDIKSANILLDEAFTAKISDFGLARASEKFAQTVMTSRIVGTTAYMAPEALRGEITPKSDIYSFGVVLLEIITGLPAVDEHREPQLLLDIKEEIEDEEKTIEDYIDKKMNDADSTSVEAMYSVASQCLHEKKNKRPDIKKVQQLLQEMTAS | no binding (condition: 15 min of CL075 stimulation) | binds | binds
